Measurements from the supplement of paper PMC12217912.
The list shows a part of the results. Sequences were assembled here from the parent chain. Values near 0.05 are background.

B1: TEV protease; numbered along this chain (parent)
chain: MGESLFKGPRDYNPISSSICHLTNESDGHTTSLYGIGFGPFIITNKHLFRRNNGTLVVQSLHGVFKVKDTTTLQQHLVDGRDMIIIRMPKDFPPFPQKLKFREPQREERICLVTTNFQTKSMSSMVSDTSCTFPSGDGIFWKHWIQTKDGQCGSPLVSTRDGFIVGIHSASNFTNTNNYFTSVPKNFMELLTNQEAQQWVSGWRLNADSVLWGGHKVFMVKPEEPFQPVKEATQL

Variants of: B1
Assay: raw area under fraction-flipped curve 0-4 h after induction (AUC4h, not background-subtracted), DNA-recorder readout of cleavage of the substrate (dimensionless); higher = more cleavage of the substrate by the protease variant
Details: temperature: 34 °C; time window: 0-4 h after rhamnose induction
Method: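 In vivo DNA recorder in E. coli TOP10(DE3) ΔrhaA at 34 °C. Each TEVp single-site mutant (parent TEVp 0) is paired with a single-site variant of the 7-mer TEVs (canonical ENLYFQ|S). The substrate sits between flexible linkers in a Bxb1-sfGFP-TEVs-SsrA fusion, so cleavage stabilises Bxb1 and speeds flipping of a recombination array, read by NGS. The value is the raw area under the fraction-flipped curve over 0-4 h after rhamnose induction (AUC4h), with ≥20 reads per time point. It is not background-subtracted; inactive controls average about 0.047.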
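Also: Bxb1 expression induced with 0.2% (w/v) L-rhamnose at OD600 near 0.5, cultures sampled hourly, flipped fraction per protease–substrate barcode pair counted by paired-end Illumina sequencing.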

Variant	area with substrate DNLYFQS	area with substrate HNLYFQS	area with substrate INLYFQS	area with substrate MNLYFQS	area with substrate PNLYFQS	area with substrate QNLYFQS	area with substrate RNLYFQS	area with substrate SNLYFQS	area with substrate YNLYFQS	area with substrate GNLYFQS	area with substrate KNLYFQS	area with substrate LNLYFQS	area with substrate NNLYFQS	area with substrate TNLYFQS	area with substrate WNLYFQS	area with substrate FNLYFQS	area with substrate VNLYFQS
P228A	0.0874	0.0645	0.0555	0.0546	0.0285	0.0768	0.0693	0.0645	0.0557	–	–	–	–	–	–	–	–
T30A	0.0953	0.0591	–	0.0788	0.0697	–	0.0744	0.0505	0.063	0.0582	0.073	0.0651	0.0734	0.0608	0.0617	–	–
T132P	0.0654	0.0713	0.0611	0.057	0.0552	0.0669	–	0.0492	0.0662	–	0.0619	–	–	0.0552	0.0628	–	–
I86Y	0.0565	0.0446	–	0.0649	0.0083	–	–	0.0634	–	–	–	–	0.0664	–	0.0575	0.0417	–
I145W	0.0914	0.058	–	0.0594	0.0571	–	0.0737	–	0.0627	–	0.0542	0.0462	0.0516	–	0.051	0.0519	–
K216W	0.0741	0.062	–	–	–	–	–	0.0421	–	0.0676	–	0.0679	–	0.0681	0.0671	0.0742	–
L235A	0.0877	0.0562	–	0.0569	0.0782	–	–	0.0755	0.0707	–	0.054	0.0814	0.0496	0.0659	0.0709	–	0.0997
F65Y	0.0904	0.0582	–	–	0.0652	–	–	0.0677	0.0518	0.0741	–	–	–	0.0677	0.0759	0.0705	–
F173W	0.0837	0.072	0.0612	–	0.0626	0.0744	–	–	0.0508	0.0592	0.0532	–	0.0502	0.0612	0.0527	0.0779	0.0524
M219K	0.0623	0.0626	0.0831	0.057	0.0535	–	–	0.0523	0.0467	0.0511	0.0508	–	–	0.055	0.0778	–	–
D27Y	0.0653	0.0501	0.0543	–	0.0653	–	–	0.0589	0.143	0.0637	0.0649	–	0.056	0.0597	0.0578	–	–
K7N	0.0894	0.055	0.0611	–	0.0731	–	–	0.0457	0.0651	0.0678	–	0.0604	–	0.056	0.0628	–	0.0689
I164S	0.0533	0.0534	0.0498	0.0443	0.0762	–	0.0562	0.0546	0.0516	–	0.035	0.0628	–	–	0.0566	–	0.0429
T115V	0.0901	0.0634	0.0671	–	0.0462	–	0.0726	–	–	–	0.0975	0.0497	–	0.0558	0.071	0.0551	–
